Measurements taken from paper PMC4336329 (PLoS ONE, 2015).
The whole screen tested about 310,000 compounds, of which about 14,000 (4.5%) showed an effect of 50% or more. The effect is printed as a negative number. Some of the results follow.

Target: human ether-à-go-go-related gene (hERG) potassium channel (human, UniProt Q12809)
Assay: primary screen, population patch clamp on CHO cells stably expressing hERG
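Note: peak tail current of the secondary pulse compared with the same well before compound.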

Chain of human ether-à-go-go-related gene (hERG) potassium channel (Q12809 whole entry, looked up): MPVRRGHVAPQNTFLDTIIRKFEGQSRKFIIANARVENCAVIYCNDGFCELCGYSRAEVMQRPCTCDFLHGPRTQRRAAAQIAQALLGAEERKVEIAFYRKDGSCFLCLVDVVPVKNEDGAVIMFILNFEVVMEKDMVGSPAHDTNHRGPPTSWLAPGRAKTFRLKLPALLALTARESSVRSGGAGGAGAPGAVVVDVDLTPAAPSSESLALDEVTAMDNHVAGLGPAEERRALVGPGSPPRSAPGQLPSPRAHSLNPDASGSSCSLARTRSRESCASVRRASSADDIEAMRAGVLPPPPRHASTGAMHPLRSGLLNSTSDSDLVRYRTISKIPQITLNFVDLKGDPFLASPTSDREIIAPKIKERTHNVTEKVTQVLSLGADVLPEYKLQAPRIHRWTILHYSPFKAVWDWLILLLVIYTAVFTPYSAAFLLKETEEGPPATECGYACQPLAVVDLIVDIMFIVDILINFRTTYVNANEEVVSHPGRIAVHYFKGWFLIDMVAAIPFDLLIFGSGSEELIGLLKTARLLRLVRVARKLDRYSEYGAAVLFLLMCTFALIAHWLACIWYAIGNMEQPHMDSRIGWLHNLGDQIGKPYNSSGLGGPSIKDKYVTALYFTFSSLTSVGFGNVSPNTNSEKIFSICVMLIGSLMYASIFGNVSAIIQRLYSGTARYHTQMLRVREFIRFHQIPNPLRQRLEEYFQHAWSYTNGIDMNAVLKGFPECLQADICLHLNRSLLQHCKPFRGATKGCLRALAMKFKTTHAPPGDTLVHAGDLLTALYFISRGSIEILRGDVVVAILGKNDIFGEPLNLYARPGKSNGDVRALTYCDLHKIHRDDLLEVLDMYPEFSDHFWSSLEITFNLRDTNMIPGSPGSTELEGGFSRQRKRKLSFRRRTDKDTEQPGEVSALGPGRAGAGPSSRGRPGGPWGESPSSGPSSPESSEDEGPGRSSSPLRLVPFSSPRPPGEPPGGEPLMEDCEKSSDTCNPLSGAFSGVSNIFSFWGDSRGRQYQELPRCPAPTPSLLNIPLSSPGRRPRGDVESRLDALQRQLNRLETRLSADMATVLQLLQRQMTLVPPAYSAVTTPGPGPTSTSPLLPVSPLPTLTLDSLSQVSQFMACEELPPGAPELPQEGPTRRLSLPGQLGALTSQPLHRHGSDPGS

How did the “hERG current change (%, negative = inhibition) at 10uM” value turn out when CCOc1ccc(N=C2NC(=O)C(CC(=O)Nc3ccccc3)S2)cc1 (centres unmarked) was run?
Its value is 14.9%.

For CCOC(=O)CSc1nc2cc(C(=O)OC)ccc2c(=O)n1CCN1CCOCC1, which “hERG current change (%, negative = inhibition) at 10uM” value is on record?
The value was -38.4%.

For COc1cccc(NC(=O)C(=O)NCCCn2ccnc2)c1, which “hERG current change (%, negative = inhibition) at 10uM” value is on record?
The value was 17.6%.

For COc1ccc(NC(=O)c2ccccc2NC(=O)c2ccccc2)cc1, which “hERG current change (%, negative = inhibition) at 10uM” value is on record?
The value was 28.5%.

COC(=O)Cn1c(CN2CCC(Cc3ccccc3)CC2)nc2c1c(=O)n(C)c(=O)n2C was tested. Which “hERG current change (%, negative = inhibition) at 10uM” value did it give?
Its value is 8.46%.

Which “hERG current change (%, negative = inhibition) at 10uM” value does the source give for CC(C)n1nc(C(=O)Nc2cccc(S(=O)(=O)N3CCCCC3)c2)c2ccccc2c1=O here?
The value was -2.92%.

For Cc1csc(SCC(=O)O)n1, which “hERG current change (%, negative = inhibition) at 10uM” value is on record?
The value was 12%.

Which “hERG current change (%, negative = inhibition) at 10uM” value does the source give for CC(C)C(=O)Nc1ccc([N+](=O)[O-])c(C(F)(F)F)c1 here?
The value was -8.02%.

For CCN(CC)C(=O)C1CCCN(c2ccccc2[N+](=O)[O-])C1 (centres unmarked), which “hERG current change (%, negative = inhibition) at 10uM” value is on record?
Its value is -1.67%.

C=CCN(c1ccccc1)S(=O)(=O)c1cccc(C(=O)O)c1 was tested. Which “hERG current change (%, negative = inhibition) at 10uM” value did it give?
The value was 16%.

With Cl.O=C(NC12CC3CC(CC(C3)C1)C2)OC1CN2CCC1CC2 (centres unmarked) as the compound, how does the “hERG current change (%, negative = inhibition) at 10uM” value read?
The value was -20.6%.

Cn1nc(CC(=O)NC2CCCCCCCCCCC2)c2ccccc2c1=O was tested. Which “hERG current change (%, negative = inhibition) at 10uM” value did it give?
Its value is -6.93%.

With CC(=O)OC1=CC[C@H]2[C@@H]3CC[C@H]4C[C@H](OC(C)=O)[C@@H](OC(C)=O)C[C@]4(C)[C@H]3CC[C@]12C as the compound, how does the “hERG current change (%, negative = inhibition) at 10uM” value read?
Its value is 3.92%.

Which “hERG current change (%, negative = inhibition) at 10uM” value does the source give for Cc1cnc(CNC(=O)c2ccc3oc(Cc4ccccc4)nc3c2)[nH]1 here?
The value was 5.13%.

For CC[C@@]12C(=O)N(c3ccc(OC)cc3)C(=O)N1[C@H](c1ccc(Cl)cc1)[C@@H]1C(=O)N(C3CCCCC3)C(=O)[C@@H]12, which “hERG current change (%, negative = inhibition) at 10uM” value is on record?
Its value is -2.13%.

For O=C(NC1CCCN(c2ccc(C(F)(F)F)cn2)C1)c1ccncc1 (centres unmarked), which “hERG current change (%, negative = inhibition) at 10uM” value is on record?
Its value is -69.2%.

For CC(C)Oc1ccc(C(=O)NCC(=O)OCC(=O)N(C)Cc2cccs2)cc1, which “hERG current change (%, negative = inhibition) at 10uM” value is on record?
Its value is -15.9%.

How did the “hERG current change (%, negative = inhibition) at 10uM” value turn out when COC(=O)C(Cc1ccccc1)NC(=O)c1cc(=O)[nH]c2ccccc12 (centres unmarked) was run?
Its value is 17.6%.

Oc1ccc(/C=N/n2cnn(Cc3ccccc3Cl)c2=S)c(O)c1 was tested. Which “hERG current change (%, negative = inhibition) at 10uM” value did it give?
Its value is 7.75%.

With O=S(=O)(NCc1ccco1)N1CCOCC1 as the compound, how does the “hERG current change (%, negative = inhibition) at 10uM” value read?
Its value is 15.1%.

How did the “hERG current change (%, negative = inhibition) at 10uM” value turn out when COc1ccc(C2=NOC(Cn3nc(-c4ccccc4C)cc3C(=O)O)C2)cc1 (centres unmarked) was run?
Its value is 2.44%.

Which “hERG current change (%, negative = inhibition) at 10uM” value does the source give for Cc1cccn2c(=O)c3cc(C(=O)NC4CCCCC4)c(=N)n(Cc4ccc(F)cc4)c3nc12 here?
Its value is -77.1%.

Which “hERG current change (%, negative = inhibition) at 10uM” value does the source give for COC(=O)CN(c1cccc(C(C)=O)c1)S(C)(=O)=O here?
Its value is 9.02%.

How did the “hERG current change (%, negative = inhibition) at 10uM” value turn out when O=C(N/N=C/c1cc(Br)cc(Br)c1O)c1cccc(N2CCCC2=O)c1 was run?
The value was 19.4%.

Cn1nc(-c2ccc(OCC(=O)NCC3CCCO3)cc2)c2ccccc2c1=O (centres unmarked) was tested. Which “hERG current change (%, negative = inhibition) at 10uM” value did it give?
Its value is -1.44%.

With Cc1ccc(C(=O)Nc2cccc(S(=O)(=O)N3CCOCC3)c2)cc1[N+](=O)[O-] as the compound, how does the “hERG current change (%, negative = inhibition) at 10uM” value read?
The value was 24.5%.

Which “hERG current change (%, negative = inhibition) at 10uM” value does the source give for O=C(Cn1cc2c(n1)CCCCC2)Nc1ccccc1Cl here?
Its value is -6%.

Which “hERG current change (%, negative = inhibition) at 10uM” value does the source give for Cc1cc(C(F)(F)F)nn1Cc1n[nH]c(=S)n1Cc1ccccc1 here?
The value was 7.66%.

For CC(=O)Nc1ccc(NC(=O)N2CCCCC2)cc1, which “hERG current change (%, negative = inhibition) at 10uM” value is on record?
Its value is -0.952%.

For Cn1c(/C=C/c2cccc(Br)c2)nc2ccccc2c1=O, which “hERG current change (%, negative = inhibition) at 10uM” value is on record?
The value was 19%.

For Cc1ccsc1C(=O)OCC(=O)c1ccc[nH]1, which “hERG current change (%, negative = inhibition) at 10uM” value is on record?
The value was -14.7%.

O=C(O)CCC1(CCC(=O)O)c2ccccc2-c2ccccc21 was tested. Which “hERG current change (%, negative = inhibition) at 10uM” value did it give?
Its value is 8.34%.

Which “hERG current change (%, negative = inhibition) at 10uM” value does the source give for CC1CCN(S(=O)(=O)c2ccc(N/N=C(/C#N)C(N)=O)cc2)CC1 here?
The value was 4.9%.

How did the “hERG current change (%, negative = inhibition) at 10uM” value turn out when Cn1c(CN2CCOCC2)nnc1SCC(=O)Nc1nccs1 was run?
The value was 5.47%.

With CC(=O)c1ccc(N=C2NC(=O)C(CO)(CO)S2)cc1 as the compound, how does the “hERG current change (%, negative = inhibition) at 10uM” value read?
The value was -2.03%.

For CCCn1c(=O)c2c(c3ccccc31)OC(C)C(=O)N2 (centres unmarked), which “hERG current change (%, negative = inhibition) at 10uM” value is on record?
The value was -6.2%.

With CCCCC1(C)OC(=O)C(=Cc2c[nH]c3ccccc23)C(=O)O1 (centres unmarked) as the compound, how does the “hERG current change (%, negative = inhibition) at 10uM” value read?
Its value is 17.7%.

Which “hERG current change (%, negative = inhibition) at 10uM” value does the source give for Cc1nnc2nc(-c3ccccc3)nc(-c3ccccc3)n12 here?
The value was 19.5%.

With Cc1c(NC(=O)c2csc3c2CCCC3)c(=O)n(-c2ccccc2)n1C as the compound, how does the “hERG current change (%, negative = inhibition) at 10uM” value read?
Its value is 21.1%.

How did the “hERG current change (%, negative = inhibition) at 10uM” value turn out when COP(=O)(/C=C/c1ccccc1)C(O)c1ccc(F)cc1 (centres unmarked) was run?
The value was 21.5%.

For COc1ccc(CC(O)COS(N)(=O)=O)cc1 (centres unmarked), which “hERG current change (%, negative = inhibition) at 10uM” value is on record?
Its value is 13.2%.

COC(=O)c1sc(C(C)(C)C)cc1CSc1ccccc1 was tested. Which “hERG current change (%, negative = inhibition) at 10uM” value did it give?
The value was -7.27%.

Clc1ccc(CNCc2cccs2)c(Cl)c1 was tested. Which “hERG current change (%, negative = inhibition) at 10uM” value did it give?
The value was 9.16%.

With Cc1ccc(/C=C2/SC(=S)N(CCC(=O)N3CCOCC3)C2=O)cc1 as the compound, how does the “hERG current change (%, negative = inhibition) at 10uM” value read?
The value was 9.61%.
